# According to the supplement of paper PMC3334620:
# Whole data set: some 33,000 sequences, median “E-score (-0.5 to 0.5)” near -0.043, cut for the highest 2% near 0.37. The list shows a part of the results.
# Molecular target: T1, Upc2 (UniProt Q12151)
# T1 sequence: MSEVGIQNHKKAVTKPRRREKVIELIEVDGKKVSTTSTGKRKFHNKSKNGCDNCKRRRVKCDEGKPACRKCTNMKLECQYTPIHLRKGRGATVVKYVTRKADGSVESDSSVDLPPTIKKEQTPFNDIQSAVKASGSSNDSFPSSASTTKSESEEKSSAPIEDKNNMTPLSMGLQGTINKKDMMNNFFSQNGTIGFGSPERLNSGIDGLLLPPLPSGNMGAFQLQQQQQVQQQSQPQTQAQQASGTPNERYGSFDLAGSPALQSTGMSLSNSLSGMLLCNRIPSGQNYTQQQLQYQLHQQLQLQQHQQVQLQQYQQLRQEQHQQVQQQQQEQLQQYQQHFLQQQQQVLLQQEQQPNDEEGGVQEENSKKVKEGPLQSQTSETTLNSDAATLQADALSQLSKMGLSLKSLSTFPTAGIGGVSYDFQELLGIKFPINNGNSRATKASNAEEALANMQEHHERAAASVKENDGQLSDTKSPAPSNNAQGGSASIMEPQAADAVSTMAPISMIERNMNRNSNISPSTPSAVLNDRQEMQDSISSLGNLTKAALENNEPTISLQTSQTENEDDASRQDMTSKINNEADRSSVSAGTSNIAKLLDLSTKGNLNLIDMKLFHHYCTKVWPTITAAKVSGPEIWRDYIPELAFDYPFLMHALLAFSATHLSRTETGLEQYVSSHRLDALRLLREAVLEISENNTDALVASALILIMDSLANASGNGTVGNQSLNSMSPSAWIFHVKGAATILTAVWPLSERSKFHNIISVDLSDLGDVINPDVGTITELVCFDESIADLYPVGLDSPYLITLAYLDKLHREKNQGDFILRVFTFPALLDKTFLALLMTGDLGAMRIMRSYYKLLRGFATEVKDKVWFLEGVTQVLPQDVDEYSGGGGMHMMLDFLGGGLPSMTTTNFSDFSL
# Experiment: PBM E-score (8-mer binding enrichment) (E-score (-0.5 to 0.5)); higher = stronger / more preferred TF binding; most listed sequences are background and not binding sites
# Conditions: protein concentration: 200 nM; construct: GST-full length
# Method in brief: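 For each ungapped eight-base word taken together with its reverse complement, the Universal PBM Analysis Suite assigned an E-score. Binding data came from GST-tagged yeast transcription factors, applied at about 100-200 nM, on universal all-10-mer Agilent arrays made double-stranded by primer extension. Fluorescent anti-GST marked bound protein, and scans were normalised with masliner.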
row,Sequence,PBM E-score
1,CATGTAGA,-0.165
2,GCTGGATA,-0.131
3,ATCTGCAC,-0.124
4,GACTTTCC,-0.229
5,AGACGATG,0.0313
6,CACCACAC,-0.239
7,CGTGACAG,0.084
8,ATCCGACA,0.158
9,AGCGCGGG,-0.0277
10,CCGAAGCA,0.0563
11,CAACATTG,0.0126
12,AGGTAAGA,0.101
13,CTAGCGAG,-0.011
14,ATCAACAT,-0.0449
15,CCAGTCCC,-0.235
16,TGCCTCCA,-0.221
17,CAGCGTGC,-0.212
18,ATTTTCAC,0.0208
19,AACCAATG,-0.166
20,AATTATAG,0.0092
21,GCGTATGA,0.305
22,AAGCCAAC,0.098

row,Sequence,PBM E-score
1,ATCAGTAC,0.104
2,CAGACCCG,-0.0414
3,ACGGGCAA,0.16
4,CTACTATC,0.00083
5,CAATTCAG,-0.00105
6,GTCTAAAC,0.257
7,TTCGTCAA,0.0787
8,AAGAACGT,0.108
9,CCCCATGC,-0.29
10,TTCATCAA,-0.181
11,TATTCTAA,0.0995
12,TAGCATGA,-0.243
13,CGATCGAC,0.0174
14,ATTCAATA,0.0442
15,ACAGGAAT,-0.131
16,GCGGCTAA,-0.0166
17,GACCAGGA,-0.0205
18,TGGGTGAA,0.0898
19,CACCTGAG,-0.25
20,CGAATATC,0.0843
21,AGGATAAG,-0.175
22,TCGATAGA,-0.00116

row,Sequence,PBM E-score
1,TCGTTAAA,0.466
2,CACATCTC,-0.0889
3,TCATCAAA,-0.111
4,ACCCATCC,-0.082
5,GAGCAATA,-0.00989
6,AGCACTTC,-0.082
7,AAGTGGGG,-0.11
8,CATTAGTA,-0.0153
9,GAATGACC,-0.12
10,ACGCCTAC,-0.0515
11,AATAGTTA,-0.00543
12,CCTTCCGC,-0.243
13,CCTCCAAG,-0.292
14,ACCGTTAT,-0.0125
15,ACTCATCA,-0.128
16,AATCGATA,0.147
17,AGGCACCA,0.0711
18,AGAGCCCG,-0.0194
19,ATTAACAA,0.177
20,GAACACCA,-0.16
21,TAAACAGA,-0.078
22,ATCACCTA,-0.0444

row,Sequence,PBM E-score
1,CTCAAGCA,-0.295
2,AATCATGC,-0.304
3,CATTCTGC,-0.117
4,GAGGATCC,-0.0192
5,GTCTCGTA,0.456
6,ACACATGC,-0.12
7,CACGACGA,0.126
8,ATCCGTTC,0.221
9,AACGGTGA,0.241
10,AATACAAT,0.0106
11,CAAAACGA,0.31
12,ATGAGATC,0.081
13,CAAATTAA,-0.103
14,AAGTGGAG,-0.194
15,ACTCATAA,-0.0749
16,CTCTAAAG,-0.225
17,AGCTCATG,-0.159
18,ACGCAACC,0.132
19,AAGGGCAC,-0.242
20,GCATTGCA,-0.0224
